{"source": "a collection of fitness landscapes (doi:10.1126/science.1257360)", "parents": {"B1": {"name": "PhoQ; a variant is named by its letters at X, in order, P23837 (parent)", "chain": "MKKLLRLFFPLSLRVRFLLATAAVVLVLSLAYGMVALIGYSVSFDKTTFRLLRGESNLFYTLAKWENNKLHVELPENIDKQSPTMTLIYDENGQLLWAQRDVPWLMKMIQPDWLKSNGFHEIEADVNDTSLLLSGDHSIQQQLQEVREDDDDAEMTHSVAVNVYPATSRMPKLTIVVVDTIPVELKSSYMVWSWFIYVLSANLLLVIPLLWVAAWWSLRPIEALAKEVRELEEHNRELLNPATTRELTSLVRNLNRLLKSERERYDKYRTTLTDLTHSLKTPLXXLQXXLRSLRSEKMSVSDAEPVMLEQISRISQQIGYYLHRASMRGGTLLSRELHPVAPLLDNLTSALNKVYQRKGVNISLDISPEISFVGEQNDFVEVMGNVLDNACKYCLEFVEISARQTDEHLYIVVEDDGPGIPLSKREVIFDRGQRVDTLRPGQGVGLAVAREITEQYEGKIVAGESMLGGARMEVIFGRQHSAPKDE"}}, "note": "This is one part of the list.", "data": [{"variants_of": "B1", "test": "enrichment ratio after two sorts for PhoP signalling (ratio (wild type AVST 3.29)); higher = more functional", "conditions": "with PhoP (E. coli)", "values": [{"variant": "CSYI", "enrichment ratio": 6.37}, {"variant": "TFLM", "enrichment ratio": 1.51}, {"variant": "KYSN", "enrichment ratio": "≤ 0.25"}, {"variant": "MMHI", "enrichment ratio": "≤ 0.25"}, {"variant": "SHEC", "enrichment ratio": "≤ 0.25"}, {"variant": "FHQA", "enrichment ratio": "≤ 0.25"}, {"variant": "HAIY", "enrichment ratio": "≤ 0.25"}, {"variant": "GLWI", "enrichment ratio": "≤ 0.25"}, {"variant": "VNPT", "enrichment ratio": "≤ 0.25"}, {"variant": "VMIR", "enrichment ratio": "≤ 0.25"}, {"variant": "YVLE", "enrichment ratio": "≤ 0.25"}, {"variant": "LWMF", "enrichment ratio": "≤ 0.25"}, {"variant": "SYFQ", "enrichment ratio": "≤ 0.25"}, {"variant": "WLFS", "enrichment ratio": "≤ 0.25"}, {"variant": "THVA", "enrichment ratio": 0.983}, {"variant": "DTPR", "enrichment ratio": "≤ 0.25"}, {"variant": "NVER", "enrichment ratio": "≤ 0.25"}, {"variant": "QNMR", "enrichment ratio": "≤ 0.25"}, {"variant": "LGNV", "enrichment ratio": "≤ 0.25"}, {"variant": "GSWA", "enrichment ratio": "≤ 0.25"}, {"variant": "TYDN", "enrichment ratio": "≤ 0.25"}, {"variant": "LNKL", "enrichment ratio": "≤ 0.25"}, {"variant": "SHCH", "enrichment ratio": 16}, {"variant": "LMEH", "enrichment ratio": "≤ 0.25"}, {"variant": "PWTD", "enrichment ratio": "≤ 0.25"}, {"variant": "PADS", "enrichment ratio": "≤ 0.25"}, {"variant": "IHCC", "enrichment ratio": "≤ 0.25"}, {"variant": "PSDE", "enrichment ratio": "≤ 0.25"}, {"variant": "MNTN", "enrichment ratio": "≤ 0.25"}, {"variant": "HSMC", "enrichment ratio": "≤ 0.25"}, {"variant": "QLYK", "enrichment ratio": "≤ 0.25"}, {"variant": "NTDW", "enrichment ratio": "≤ 0.25"}, {"variant": "WQGK", "enrichment ratio": "≤ 0.25"}, {"variant": "MHNC", "enrichment ratio": "≤ 0.25"}, {"variant": "DMMN", "enrichment ratio": "≤ 0.25"}, {"variant": "LAPE", "enrichment ratio": "≤ 0.25"}, {"variant": "RPQR", "enrichment ratio": "≤ 0.25"}, {"variant": "YEKL", "enrichment ratio": "≤ 0.25"}, {"variant": "TCLM", "enrichment ratio": 1.01}, {"variant": "VYYY", "enrichment ratio": "≤ 0.25"}, {"variant": "HSVT", "enrichment ratio": "≤ 0.25"}, {"variant": "RLYL", "enrichment ratio": "≤ 0.25"}, {"variant": "AMWK", "enrichment ratio": "≤ 0.25"}, {"variant": "KKVG", "enrichment ratio": "≤ 0.25"}, {"variant": "KQGP", "enrichment ratio": "≤ 0.25"}, {"variant": "HWHY", "enrichment ratio": "≤ 0.25"}, {"variant": "NLTQ", "enrichment ratio": "≤ 0.25"}, {"variant": "MNRS", "enrichment ratio": 0.447}, {"variant": "PIFC", "enrichment ratio": "≤ 0.25"}, {"variant": "QHVD", "enrichment ratio": "≤ 0.25"}, {"variant": "TYND", "enrichment ratio": "≤ 0.25"}, {"variant": "QGMP", "enrichment ratio": "≤ 0.25"}, {"variant": "YEIW", "enrichment ratio": "≤ 0.25"}, {"variant": "LCVD", "enrichment ratio": "≤ 0.25"}, {"variant": "EIQR", "enrichment ratio": "≤ 0.25"}, {"variant": "LLIV", "enrichment ratio": "≤ 0.25"}, {"variant": "DFEN", "enrichment ratio": "≤ 0.25"}, {"variant": "AYFD", "enrichment ratio": "≤ 0.25"}, {"variant": "MMDD", "enrichment ratio": "≤ 0.25"}, {"variant": "MDGD", "enrichment ratio": "≤ 0.25"}, {"variant": "SCDH", "enrichment ratio": "≤ 0.25"}, {"variant": "KEPM", "enrichment ratio": "≤ 0.25"}, {"variant": "KTIR", "enrichment ratio": "≤ 0.25"}, {"variant": "FQHF", "enrichment ratio": "≤ 0.25"}, {"variant": "SYAK", "enrichment ratio": "≤ 0.25"}, {"variant": "HVKK", "enrichment ratio": "≤ 0.25"}, {"variant": "WLIW", "enrichment ratio": "≤ 0.25"}, {"variant": "DANY", "enrichment ratio": "≤ 0.25"}, {"variant": "KRTK", "enrichment ratio": "≤ 0.25"}, {"variant": "LACT", "enrichment ratio": "≤ 0.25"}, {"variant": "AYWP", "enrichment ratio": "≤ 0.25"}, {"variant": "VHTI", "enrichment ratio": "≤ 0.25"}, {"variant": "SIML", "enrichment ratio": 6.65}, {"variant": "LAEC", "enrichment ratio": "≤ 0.25"}, {"variant": "KPLR", "enrichment ratio": "≤ 0.25"}, {"variant": "WIVI", "enrichment ratio": "≤ 0.25"}, {"variant": "MCMV", "enrichment ratio": 1.25}, {"variant": "RICR", "enrichment ratio": "≤ 0.25"}, {"variant": "PAKR", "enrichment ratio": "≤ 0.25"}, {"variant": "YPMP", "enrichment ratio": "≤ 0.25"}, {"variant": "HRQA", "enrichment ratio": "≤ 0.25"}, {"variant": "CKDS", "enrichment ratio": "≤ 0.25"}, {"variant": "NHCC", "enrichment ratio": "≤ 0.25"}, {"variant": "YSTW", "enrichment ratio": "≤ 0.25"}, {"variant": "RPLQ", "enrichment ratio": "≤ 0.25"}, {"variant": "PFLS", "enrichment ratio": "≤ 0.25"}, {"variant": "QLPI", "enrichment ratio": "≤ 0.25"}, {"variant": "FHSG", "enrichment ratio": "≤ 0.25"}, {"variant": "PQTA", "enrichment ratio": "≤ 0.25"}, {"variant": "PYAP", "enrichment ratio": "≤ 0.25"}, {"variant": "NVHG", "enrichment ratio": "≤ 0.25"}, {"variant": "QLQY", "enrichment ratio": "≤ 0.25"}, {"variant": "DKIG", "enrichment ratio": "≤ 0.25"}, {"variant": "IYRE", "enrichment ratio": "≤ 0.25"}, {"variant": "PICT", "enrichment ratio": "≤ 0.25"}, {"variant": "GQPV", "enrichment ratio": "≤ 0.25"}, {"variant": "VWLD", "enrichment ratio": "≤ 0.25"}, {"variant": "WHFA", "enrichment ratio": "≤ 0.25"}, {"variant": "NNNI", "enrichment ratio": "≤ 0.25"}, {"variant": "FHFD", "enrichment ratio": "≤ 0.25"}, {"variant": "LVSP", "enrichment ratio": "≤ 0.25"}, {"variant": "HSVV", "enrichment ratio": "≤ 0.25"}, {"variant": "PATN", "enrichment ratio": "≤ 0.25"}, {"variant": "QFRS", "enrichment ratio": "≤ 0.25"}, {"variant": "DCGQ", "enrichment ratio": "≤ 0.25"}, {"variant": "VCIW", "enrichment ratio": "≤ 0.25"}, {"variant": "VESG", "enrichment ratio": 3.66}, {"variant": "ITHH", "enrichment ratio": "≤ 0.25"}, {"variant": "PPWI", "enrichment ratio": "≤ 0.25"}, {"variant": "VWPR", "enrichment ratio": "≤ 0.25"}, {"variant": "HAWR", "enrichment ratio": "≤ 0.25"}, {"variant": "VRTF", "enrichment ratio": "≤ 0.25"}, {"variant": "ASAA", "enrichment ratio": 13.4}, {"variant": "TAPR", "enrichment ratio": "≤ 0.25"}, {"variant": "KVKC", "enrichment ratio": "≤ 0.25"}, {"variant": "STRN", "enrichment ratio": "≤ 0.25"}, {"variant": "DVGG", "enrichment ratio": "≤ 0.25"}, {"variant": "GMIT", "enrichment ratio": "≤ 0.25"}, {"variant": "PFRG", "enrichment ratio": "≤ 0.25"}, {"variant": "TMKA", "enrichment ratio": "≤ 0.25"}, {"variant": "AHTP", "enrichment ratio": "≤ 0.25"}, {"variant": "GIGI", "enrichment ratio": "≤ 0.25"}, {"variant": "VCTT", "enrichment ratio": "≤ 0.25"}, {"variant": "FGFF", "enrichment ratio": "≤ 0.25"}, {"variant": "HTVH", "enrichment ratio": "≤ 0.25"}, {"variant": "FWYD", "enrichment ratio": "≤ 0.25"}, {"variant": "RFQT", "enrichment ratio": "≤ 0.25"}, {"variant": "ENVQ", "enrichment ratio": "≤ 0.25"}, {"variant": "GHFQ", "enrichment ratio": "≤ 0.25"}, {"variant": "YPSI", "enrichment ratio": "≤ 0.25"}, {"variant": "LSMA", "enrichment ratio": "≤ 0.25"}, {"variant": "AKDL", "enrichment ratio": "≤ 0.25"}, {"variant": "HMGM", "enrichment ratio": "≤ 0.25"}, {"variant": "RHPD", "enrichment ratio": "≤ 0.25"}, {"variant": "KAWW", "enrichment ratio": "≤ 0.25"}, {"variant": "QRSW", "enrichment ratio": "≤ 0.25"}, {"variant": "GCTI", "enrichment ratio": 0.873}, {"variant": "GPRQ", "enrichment ratio": "≤ 0.25"}, {"variant": "DQQR", "enrichment ratio": "≤ 0.25"}, {"variant": "NNML", "enrichment ratio": 8.6}, {"variant": "YWLA", "enrichment ratio": "≤ 0.25"}, {"variant": "SMAP", "enrichment ratio": "≤ 0.25"}, {"variant": "SLWM", "enrichment ratio": "≤ 0.25"}, {"variant": "IHIF", "enrichment ratio": "≤ 0.25"}, {"variant": "DQAY", "enrichment ratio": "≤ 0.25"}, {"variant": "DETA", "enrichment ratio": "≤ 0.25"}, {"variant": "IKQY", "enrichment ratio": "≤ 0.25"}, {"variant": "IRFL", "enrichment ratio": "≤ 0.25"}, {"variant": "WFKT", "enrichment ratio": "≤ 0.25"}, {"variant": "ISNK", "enrichment ratio": "≤ 0.25"}, {"variant": "SGAQ", "enrichment ratio": 2.89}, {"variant": "SFCY", "enrichment ratio": "≤ 0.25"}, {"variant": "MEVI", "enrichment ratio": 18.2}]}]}
